This sample is rich in variants without activity.

B1: TPR 5TU (parent)
chain: GGAUCUUCUCGAUCUAACAAAAAAGACAAAUCUGCCACAAAGCUUGAGAGCAUCUUCGGAUGCAGAGGCGGCAGCCUUCGGUGGCGCGAUAGCGCCAACGUUCUCAACUAUGACACGCAAAACGCGUGCUCCGUUGAAUGGAGUUUAUCAUG

The variants in the data set derive from B1. Put plainly: polymerase ribozyme fitness, log enrichment relative to wild type (log ratio); higher = more active; in vitro selection for triplet polymerase activity. The gist of the method: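 A heterodimeric triplet polymerase ribozyme had each of its subunits mutagenized by PCR into a library, which was transcribed. One round of in vitro selection, done in triplicate, annealed each library with a biotinylated primer, its partner subunit and triplets, then incubated it frozen at −7 °C before gel excision of extended constructs, streptavidin-bead capture and RT-PCR. Fitness is the logarithm of genotype enrichment relative to wild-type enrichment, based on Illumina sequencing of inputs and outputs and inverse-variance-weighted replicate averages. A base-2 logarithm is used, and genotypes were kept only with ≥10 input reads and ≥1 read per output.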
Take A49G G117A: the “polymerase ribozyme fitness (log ratio)” value was -0.467.
For A49C U53A A106G the value was ≤ -4.2; for A49C G59U A73G C96U U104G U135A, ≤ -4.2.
For A49C G68A C105U A120U the value was ≤ -4.2; for A49G A52G U78G G80A C108G U127G, ≤ -4.2; for A49C G59A C76A A98G, ≤ -4.2.
For A49G G59U G84C C99U the value was ≤ -4.2.
Consider A49C C75U G88U C118U, for which the “polymerase ribozyme fitness (log ratio)” value is ≤ -4.2.
For A49C G88A the value was ≤ -4.2; for A49C G124U, ≤ -4.2; for A49C G84A C93G, ≤ -4.2.
For A49G A60G C85U the value was -0.602; for A49G C57A A64C G83U G117C A122C, ≤ -4.2; for A49G C79G G80U U90G A91U U146G, ≤ -4.2.
For A49C G83C A91G C131U G141C the value was ≤ -4.2; for A49C U56G U61A A64U C93A A113C G117C U144C, ≤ -4.2; for A49C G62U A107U G152A, ≤ -4.2.
Regarding A49G G67U C69A G70C G83A A89C C96G C105U A106G G128C, the “polymerase ribozyme fitness (log ratio)” value is ≤ -4.2.
For A49C G50U G84A the value was ≤ -4.2; for A49G A66G G71C C87G C95G A120G G124C A142U, ≤ -4.2; for A49G A52C A66U, ≤ -4.2.
With A49C G84U A142G the figure was ≤ -4.2; with A49C C79G A89C C93U G152A, ≤ -4.2; with A49C G81C C93A A107C C118U, ≤ -4.2.
With A49G C85U U139A the figure was ≤ -4.2; with A49G C76U G84A C105G G124C U134A A147G, ≤ -4.2.
Regarding A49G C54A G65C C93G C108A, the “polymerase ribozyme fitness (log ratio)” value is ≤ -4.2.
For A49G C75U C96G the value was -2.68.
With A49G C51G U78C C96G the figure was -4.14; with A49G C57G U77G G94C C132U G136C U145G, ≤ -4.2.
For A49G C51U C95U G100C A107U C123G G136U A147G the value was ≤ -4.2; for A49C C105U A106G, ≤ -4.2; for A49C U90G, ≤ -4.2.
Regarding A49G G88C U90A, the “polymerase ribozyme fitness (log ratio)” value is ≤ -4.2.
Consider A49C C108G, for which the “polymerase ribozyme fitness (log ratio)” value is ≤ -4.2.
For A49C C79U C85U C132A U134A, the “polymerase ribozyme fitness (log ratio)” value is ≤ -4.2.
With A49C C79U C85U A106G G124A the figure was ≤ -4.2.
For A49C U53A G88C G141C the value was ≤ -4.2.
With A49C C103G the figure was ≤ -4.2.
Regarding A49C C103A, the “polymerase ribozyme fitness (log ratio)” value is -3.96.
With A49C U56A A113U G152U the figure was -3.93.
As for A49C G74C, the “polymerase ribozyme fitness (log ratio)” value was ≤ -4.2.
For A49C C76G A121U the value was ≤ -4.2.
For A49C C85G G88A A106U G141C U144G, the “polymerase ribozyme fitness (log ratio)” value is ≤ -4.2.
Turning to A49C C85A C95U A106G C108G A142U, the “polymerase ribozyme fitness (log ratio)” value is ≤ -4.2.
For A49G A73G the value was -0.67; for A49G G94C G100U G126U U134A, ≤ -4.2.
With A49C G80A A89U C93A G94U the figure was ≤ -4.2.
For A49G C76A C93A C103G C105A U127C the value was ≤ -4.2; for A49G U55C C75G C96A A138C, ≤ -4.2.
In the case of A49G A73U G83U U90G C95U C96A G136A, the “polymerase ribozyme fitness (log ratio)” value is ≤ -4.2.
For A49G G68U G133A the value was ≤ -4.2.
In the case of A49C U56A A66C G84U U111G, the “polymerase ribozyme fitness (log ratio)” value is ≤ -4.2.
With A49C G81C C85U A98U U104C the figure was ≤ -4.2; with A49C U61G G62A G81C, -4.13.
With A49C U55G G80A G84U U101C the figure was ≤ -4.2; with A49C G88C G141C, ≤ -4.2.
On to A49C G59A C69G C75A C87A A107U C131G, for which the “polymerase ribozyme fitness (log ratio)” value was ≤ -4.2.
With A49G G68A G94A G128A U130C U146G A150U, the “polymerase ribozyme fitness (log ratio)” value was ≤ -4.2.
For A49G U56A A60G C76A A89G G92U the value was ≤ -4.2; for A49C G62A G65U, ≤ -4.2; for A49C G94C U104G, ≤ -4.2.
On to A49C G140C, for which the “polymerase ribozyme fitness (log ratio)” value was ≤ -4.2.
Regarding A49G U53A G86C C87U, the “polymerase ribozyme fitness (log ratio)” value is ≤ -4.2.
With A49G C54U U109G, the “polymerase ribozyme fitness (log ratio)” value is -2.26.
With A49C G50C the figure was ≤ -4.2.
For A49G G50A U56A C95U U101C U111G the value was ≤ -4.2; for A49C G68A G84A C125U U127A G128U, ≤ -4.2.
For A49C U55A U101A C103U the value was ≤ -4.2; for A49C U56C, ≤ -4.2.
For the variant A49G U61G G62A A107C, the “polymerase ribozyme fitness (log ratio)” value was ≤ -4.2.
Turning to A49G C57G C76A C96A, the “polymerase ribozyme fitness (log ratio)” value is ≤ -4.2.
Regarding A49G C57U G143C U145A, the “polymerase ribozyme fitness (log ratio)” value was ≤ -4.2.
For A49G C57U C99G C114U A120C G143U the value was ≤ -4.2; for A49C G74U U77G, ≤ -4.2.
For A49C G68C A91C G92A C99G the value was ≤ -4.2.
For A49C C85G C96G C123A the value was ≤ -4.2; for A49C G81A A91C A97U A107U G133U, ≤ -4.2.
As for A49G C87G U139A, the “polymerase ribozyme fitness (log ratio)” value is ≤ -4.2.
With A49C C118G, the “polymerase ribozyme fitness (log ratio)” value is ≤ -4.2.
Consider A49G C75A G83A A106U U144A, for which the “polymerase ribozyme fitness (log ratio)” value was ≤ -4.2.
With A49U the figure was -0.673.
With A49G G62A G86C U111G G128U U135C G136C the figure was ≤ -4.2; with A49C C93G A119G, ≤ -4.2.

These data come from the RNAGym collection of RNA variant scans (doi:10.1073/pnas.2313332121).
